Inconclusive results, whose numbers are uncertain, are shown with a selection of clear calls. For part of these data: Potencies of inconclusive entries are left out as doubtful fits. Active and inactive are the calls of the source. Unless noted, calls follow the shape of the dose curve; as a rule, active = well fitted curve in the direction sought with a large enough effect in the repeat runs; inconclusive = weak or mixed curves; inactive = no such curve, though single readings can be large; an effect the other way counts as inactive or inconclusive.
Experiments:
[1] = qHTS RealTime-Glo MT Cell Viability Assay in HEK293 cells - 0 hour (AID 1224880); also: nearly all actives have a fitted effect of over 45% in size; also: potency is read from the fitted curve at half-maximal effect
Method in brief: (§1)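 Luminescence readout at each listed time point; HEK293, 600 cells/well, RealTime-Glo MT reagent added with cells; compounds pinned (23 nL in DMSO) after 5 h at 37 C; continuous culture at 37 C.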

[2] = A CellTox Green Cytotoxicity Assay to monitor cytotoxicity in HEK293 cells - 32 hour (AID 1224881); also: nearly all actives have a fitted effect of over 40% in size; also: potency is read from the fitted curve at half-maximal effect
Method in brief: (§2)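 Read-out: fluorescence of a cell-impermeant cyanine dye staining DNA of dead cells, proportional to cytotoxicity. HEK293, 600 cells/well with reagent, compound (23 nL DMSO) added after 5 h; reads at 0, 8, 16, 24, 32, 40 h.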

[3] = A CellTox Green Cytotoxicity Assay to monitor cytotoxicity in HepG2 cells - 32 hour (AID 1224883); also: potency is read from the fitted curve at half-maximal effect; nearly all actives have a fitted effect of over 50% in size
Method in brief: (§3)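 HepG2, 600 cells/well premixed w/ CellTox Green; 5 h settle, 37 C/5% CO2; pintool cpd add (DMSO); 37 C, 40 h; fluorescence read at 0, 8, 16, 24, 32, 40 h.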

[4] = A CellTox Green Cytotoxicity Assay to monitor cytotoxicity in HEK293 cells - 8 hour (AID 1224884); also: nearly all actives have a fitted effect of over 35% in size; also: potency is read from the fitted curve at half-maximal effect
Method in brief: as §2

[5] = qHTS RealTime-Glo MT Cell Viability Assay in HEK293 cells - 8 hour (AID 1224887); also: nearly all actives have a fitted effect of over 50% in size; also: potency is read from the fitted curve at half-maximal effect
Method in brief: as §1

[6] = A CellTox Green Cytotoxicity Assay to monitor cytotoxicity in HEK293 cells - 16 hour (AID 1224888); also: nearly all actives have a fitted effect of over 35% in size; also: potency is read from the fitted curve at half-maximal effect
Method in brief: as §2

[7] = qHTS RealTime-Glo MT Cell Viability Assay in HepG2 cells - 0 hour (AID 1224889); also: potency is read from the fitted curve at half-maximal effect; nearly all actives have a fitted effect of over 50% in size
Method in brief: (§4)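 Real-time, nonlytic viability: 600 HepG2 cells/well mixed with NanoLuc enzyme plus prosubstrate; 5 h settle, compound (DMSO) added by pintool; luminescence monitored over 40 h at 37 C.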

[8] = A CellTox Green Cytotoxicity Assay to monitor cytotoxicity in HepG2 cells - 8 hour (AID 1224890); also: potency is read from the fitted curve at half-maximal effect; nearly all actives have a fitted effect of over 45% in size
Method in brief: as §3

[9] = qHTS assay to identify small molecule antagonists of the estrogen receptor alpha (ER-alpha) signaling pathway using the BG1 cell line in the presence of 0.1 nM 17-beta-estradiol - cell viability counter screen (AID 1259241); also: potency is read from the fitted curve at half-maximal effect; nearly all actives have a fitted effect of over 40% in size
Method in brief: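 Following 5 days in phenol red-free medium with charcoal-stripped serum, VM7Luc4E2 cells received test compounds alongside 0.1 nM 17beta-estradiol (final) at 37C for 22 hr. Live cells were then quantified via protease-substrate fluorescence.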

[10] = molecular target: Estrogen receptor (Homo sapiens) (UniProt P03372); test: qHTS assay to identify small molecule antagonists of the estrogen receptor alpha (ER-alpha) signaling pathway using the BG1 cell line in the presence of 0.1 nM 17-beta-estradiol (AID 1259244); also: nearly all actives have a fitted effect of over 50% in size; also: potency is read from the fitted curve at half-maximal effect
Sequence of UniProt P03372 (P03372 whole entry, looked up): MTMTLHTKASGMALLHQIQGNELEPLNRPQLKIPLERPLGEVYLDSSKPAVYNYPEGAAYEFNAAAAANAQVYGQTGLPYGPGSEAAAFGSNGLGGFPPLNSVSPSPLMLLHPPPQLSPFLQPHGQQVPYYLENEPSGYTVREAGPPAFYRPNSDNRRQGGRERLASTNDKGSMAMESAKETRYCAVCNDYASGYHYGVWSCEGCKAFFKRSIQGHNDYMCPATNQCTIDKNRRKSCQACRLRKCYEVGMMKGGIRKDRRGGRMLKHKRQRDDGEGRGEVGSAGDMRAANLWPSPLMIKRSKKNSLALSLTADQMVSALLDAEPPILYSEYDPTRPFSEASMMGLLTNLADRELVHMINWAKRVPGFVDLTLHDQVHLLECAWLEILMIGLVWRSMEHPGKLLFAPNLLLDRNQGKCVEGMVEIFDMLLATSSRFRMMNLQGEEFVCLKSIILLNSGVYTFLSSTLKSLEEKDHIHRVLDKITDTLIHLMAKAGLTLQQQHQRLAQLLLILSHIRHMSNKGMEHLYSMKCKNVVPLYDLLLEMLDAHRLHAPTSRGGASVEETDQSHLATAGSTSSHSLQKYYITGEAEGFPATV
Method in brief: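 Luminescence after ONE-Glo (30 min, room temperature) measured ERE-luciferase activity in VM7Luc4E2 cells treated 22 h with compound and 0.1 nM final 17beta-estradiol as stimulator.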

[11] = qHTS assay to identify small molecule antagonists of the sonic hedgehog signaling (Shh) pathway - cell viability counter screen (AID 1259367); also: nearly all actives have a fitted effect of over 55% in size; also: potency is read from the fitted curve at half-maximal effect
Method in brief: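 Cytotoxicity was assessed in parallel with Shh reporter activity by measuring live-cell protease fluorescence (CellTiter-Fluor) in NIH/3T3 cells stably carrying Gli1-Luc, treated with compound under conditioned medium stimulation for 23 hr plus 1 hr reagent incubation.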

[12] = qHTS RealTime-Glo MT Cell Viability Assay in HepG2 cells - 16 hour (AID 1224885)
Method in brief: as §4

[13] = qHTS assay to identify small molecule HDAC inhibitors (AID 1259364);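 also: wild-type HCT-116 cells with endogenous class I/II HDAC activity; potency is read from the fitted curve at half-maximal effect; nearly all actives have a fitted effect of over 45% in size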
Method in brief: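 HCT-116 (wild type), 1,500 cells/well, overnight; compound 2 hr 37C 5% CO2; HDAC-Glo I/II reagent 30 min RT; luminescence readout.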

[14] = qHTS assay to identify small molecule agonists of the sonic hedgehog signaling (Shh) pathway - cell viability counter screen (AID 1259366)
Method in brief: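 Compounds in DMSO were pin-transferred onto 3T3 Gli1-Luc cells that had settled 4hr; plates then stood 24hr at 37C and 5% CO2. One hour before the end, CellTiter-Fluor was added and fluorescence recorded.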

[15] = qHTS RealTime-Glo MT Cell Viability Assay in HEK293 cells - 24 hour (AID 1224886); also: nearly all actives have a fitted effect of over 50% in size; also: potency is read from the fitted curve at half-maximal effect
Method in brief: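 Cells + reagent dispensed (600 cells/well, HEK293) → 5 h at 37 C/5% CO2 → 23 nL compound in DMSO pinned → 40 h at 37 C → luminescence read at 0, 8, 16, 24, 32, 40 h.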

[16] = qHTS assay to identify small molecule antagonists of the androgen receptor (AR) signaling pathway using the MDA cell line in the presence of 0.5 nM R1881 - cell viability counter screen (AID 1259242); also: potency is read from the fitted curve at half-maximal effect; nearly all actives have a fitted effect of over 45% in size
Method in brief: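 Live-cell protease fluorescence, CellTiter-Fluor, 30 min at 37C. Cells: MDA-kb2, 3,000/well, preincubated 5 hr. Compounds plus 0.5 nM R1881 final, 16 hr, 37C, 0% CO2.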

[17] = qHTS assay to identify small molecule phospholipidosis (PLD) inducers (AID 1259344; active = well fitted curve in the direction sought with a large enough effect; inconclusive = small, poorly fitted or top-dose-only effect, or another doubt; inactive = no such curve, though single readings can be large; an effect the other way counts as inactive or inconclusive); conditions: HepG2 phospholipidosis, LipidTOX Red imaging, 24 h
Method in brief: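 Cells (HepG2, 900 per well) attach for 4 h, receive LipidTOX Red and compound together, incubate 24 h at 37 C, are fixed 30 min with paraformaldehyde/Hoechst, then imaged at one site per well.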
Tags tell the direction and shape of the fitted curve.

Q: For `CCOC(=O)COc1ccc2c(c1)CC(NCC(O)c1cccc(Cl)c1)CC2` (stereo not given), which Potency [1] is on record?
A: inconclusive [rising, partial curve, poor fit]

Q: What about the Potency [2] of the same molecule?
A: inconclusive [activator, single point]

Q: And the Potency [3]?
A: inconclusive [activator, single point]

Q: And the Potency [4]?
A: inconclusive [activator, single point]

Q: What about the Potency [5] of the same molecule?
A: inconclusive [cytotoxic, single point]

Q: And the Potency [6]?
A: inconclusive [activator, single point]

Q: And the Potency [7]?
A: inconclusive [rising, partial curve]

Q: What about the Potency [8] of the same molecule?
A: active: 44 µM

Q: What about the Potency [9] of the same molecule?
A: inconclusive [cytotoxic, partial curve, poor fit]

Q: What about the Potency [10] of the same molecule?
A: inconclusive [inhibitor, single point]

Q: What about the Potency [11] of the same molecule?
A: active: 27.5 µM

Q: Which Potency [1] does the source give for `CCCCCCCCS(=O)(=O)Cl` here?
A: inactive

Q: What about the Potency [2] of the same molecule?
A: inactive

Q: What about the Potency [5] of the same molecule?
A: inactive

Q: Which Potency [1] does the source give for `CN(C)CCOC1=Cc2ccccc2Sc2ccc(Cl)cc21` here?
A: inconclusive [rising, partial curve]

Q: What about the Potency [2] of the same molecule?
A: inconclusive [activator, single point]

Q: What about the Potency [12] of the same molecule?
A: inconclusive [cytotoxic, partial curve]

Q: And the Potency [5]?
A: inactive

Q: What about the Potency [7] of the same molecule?
A: inconclusive [rising, partial curve]

Q: And the Potency [10]?
A: inactive

Q: What about the Potency [13] of the same molecule?
A: inconclusive [inhibitor, partial curve, poor fit]

Q: What about the Potency [14] of the same molecule?
A: inconclusive [cytotoxic]

Q: What about the Potency [11] of the same molecule?
A: inactive

Q: With `CN1CCN(C)CC1` as the molecule, how does the Potency [1] read?
A: inactive

Q: Which Potency [1] does the source give for `CN(C)CCOC(c1ccccc1)c1ccccc1` here?
A: inconclusive [rising, partial curve]

Q: Which Potency [1] does the source give for `CN1CCN(c2c(F)cc3c(=O)c(C(=O)O)cn(CCF)c3c2F)CC1` here?
A: inactive

Q: And the Potency [2]?
A: inconclusive [activator, single point]

Q: And the Potency [4]?
A: inconclusive [activator, partial curve, poor fit]

Q: Which results are given for `CCCCCCCCCCCC(=O)N(C)CC(=O)O`?
A: Potency [1]: inactive; Potency [2]: inconclusive [activator, single point]; Potency [3]: inconclusive [activator, partial curve, poor fit]

Q: With `C=COCCCC` as the molecule, how does the Potency [1] read?
A: inconclusive [rising, partial curve, poor fit]

Q: And the Potency [2]?
A: inconclusive [activator, partial curve, poor fit]

Q: And the Potency [15]?
A: inconclusive [rising, single point]

Q: What about the Potency [5] of the same molecule?
A: inconclusive [rising, single point]

Q: For `O=Cc1ccc(Cl)cc1`, which Potency [1] is on record?
A: inactive

Q: Which Potency [1] does the source give for `O=C1C(CCS(=O)c2ccccc2)C(=O)N(c2ccccc2)N1c1ccccc1` (stereo not given) here?
A: inactive

Q: For `CC1=NN(c2cc(Cl)c(S(=O)(=O)O)cc2Cl)C(=O)C1N=Nc1ccc(S(=O)(=O)O)cc1` (stereo not given), which Potency [1] is on record?
A: inconclusive [falling, partial curve]

Q: And the Potency [3]?
A: inconclusive [activator, single point]

Q: And the Potency [7]?
A: inconclusive [cytotoxic, partial curve]

Q: And the Potency [16]?
A: inconclusive [cytotoxic]

Q: And the Potency [14]?
A: inconclusive [cytotoxic, partial curve]

Q: And the Potency [11]?
A: inconclusive [cytotoxic, partial curve]

Q: For `CCc1cnc(C(=O)O)c(C(=O)O)c1`, which Potency [1] is on record?
A: inactive

Q: And the Potency [4]?
A: inactive

Q: What does the source list for `O=C1Nc2ccc([N+](=O)[O-])cc2C1=O`?
A: Potency [1]: inconclusive [rising, full curve]; Potency [15]: inconclusive [cytotoxic, single point]; Potency [5]: inconclusive [cytotoxic, single point]; Potency [6]: inactive; Potency [11]: inactive

Q: Which Potency [1] does the source give for `CCOC(=O)c1ccc(O)cc1` here?
A: inconclusive [falling, single point]

Q: And the Potency [15]?
A: inconclusive [cytotoxic, partial curve, poor fit]

Q: And the Potency [5]?
A: inconclusive [cytotoxic, single point]

Q: What does the source list for `CN1C(=O)N(C)C(O)C1O` (stereo not given)?
A: Potency [1]: inactive; Potency [15]: inactive; Potency [11]: inactive

Q: Which Potency [1] does the source give for `COc1cc2nc(N3CCN(C(=O)C4COc5ccccc5O4)CC3)nc(N)c2cc1OC` (stereo not given) here?
A: active: 19 µM

Q: And the Potency [5]?
A: inconclusive [cytotoxic, partial curve]

Q: And the Potency [7]?
A: active: 10.7 µM

Q: What about the Potency [17] of the same molecule?
A: inactive
